According to PubChem BioAssay AID463173 (ICCB-Longwood Screening Facility, Harvard Medical School, 2010):
In all, about 52,000 compounds went through this assay and about 1,700 (3.3%) were called active. Cut-off read from the data, not from the text of the source: active = survival mostly below about 52% (no sharp cut-off); inactive = mostly above about 56%. Some of the results follow.

tested on: Wild type; assay: growth inhibition of S. aureus wild type versus tarO mutant, primary screen, teichoic acid synthesis inhibitors, RN4220, OD600 (AID 463173); settings: S. aureus RN4220 wild type/DeltatarO growth, OD600, 18 h, stronger effect = lower value, screened at 18.75 µg/mL (by protocol)

| Compound | survival |
| --- | --- |
| O=c1oc2ccccc2cc1-c1nc(-c2cccc(Cl)c2)cs1 | inactive: 75% |
| COc1ccccc1N1CCN(c2ncc3c(n2)CCN(Cc2ccc(C)s2)C3)CC1 | inactive: 59% |
| COc1ccc(Cl)cc1NC(=O)CSc1nc(-c2cccs2)cc(C(F)(F)F)n1 | inactive: 57% |
| Cc1ccc(Cl)cc1N1CCN(C(=O)c2sc3nc4n(c(=O)c3c2C)CCC4)CC1 | inactive: 75% |
| CCN(CC)C(=O)Cn1cc(SCC(=O)Nc2cc(OC)ccc2OC)c2ccccc21 | inactive: 101% |
| CN(C)CCNC(=O)c1ccc2nc(Cc3ccccc3)oc2c1 | inactive: 99% |
| COc1ccc(Cl)cc1NC(=O)CSc1cc(C)[nH]c(=O)n1 | inactive: 71% |
| N#Cc1ccc(C2NC(=O)NC3=C2C(=O)OC3)cc1 (stereo not drawn) | inactive: 114% |
| Cc1cccn2c(=O)cc(CSc3nnc(NC(=O)C(C)C)s3)nc12 | inactive: 119% |
| CCCCc1c(C)[nH]c2ccccc2c1=O | inactive: 109% |
| Cc1ccccc1C(=O)Nc1sc2c(c1C(=O)N1CCCCC1)CCC(C(C)(C)C)C2 (stereo not drawn) | active: 1% |
| CCC(CC)C(=O)Nc1ccc2nc(SCC(=O)N3CCOCC3)sc2c1 | inactive: 87% |
| Cc1ccc(CSc2nc3ccc(NC(=O)CC(C)C)cc3s2)cc1 | inactive: 89% |
| CCC(C)n1c(SCc2ccc(F)cc2Cl)nc2ccsc2c1=O (stereo not drawn) | inactive: 133% |
| CCOC(=O)c1noc2ncn(Cc3ccc([N+](=O)[O-])cc3)c(=O)c12 | inactive: 136% |
| O=C(NCc1ccc(Cl)cc1)C1CCN(S(=O)(=O)c2ccc(F)cc2)CC1 | inactive: 80% |
| CSc1ccc(CCNC(=O)c2c(C)nn(-c3ccc(F)cc3)c2-n2cccc2)cc1 | inactive: 81% |
| Cc1ccc(CSc2nnc([C@@H](N)C(C)C)o2)cc1 | inactive: 85% |
| Cc1c(C)c2c(cc(C)c3c(-c4ccc(Br)cc4)coc32)oc1=O | inactive: 81% |
| CCOC(=O)c1cccc(NC(=O)CCn2c(=O)oc3ccccc32)c1 | inactive: 69% |

| Compound | survival |
| --- | --- |
| CCC(Oc1ccccc1)C(=O)Nc1cccc(OCc2cc(=O)n3cccc(C)c3n2)c1 (stereo not drawn) | inactive: 121% |
| O=C(CN1CCC(C(=O)c2ccccc2)CC1)NCc1cccs1 | inactive: 92% |
| CC(=O)c1ccc(NC(=O)Cn2c(=O)cc(C)c3c(C)nn(-c4cccc(F)c4)c32)cc1 | inactive: 71% |
| COc1cccc(NC(=O)CSc2nc(C)c(Cc3ccccc3)c(=O)[nH]2)c1 | inactive: 69% |
| CCOC(=O)c1c(C)[nH]c(C)c1S(=O)(=O)NCC(=O)Nc1cccc(SC)c1 | inactive: 87% |
| CCC1CCc2nc3sc(C(=O)Nc4cccc(F)c4)c(N)c3cc2C1 (stereo not drawn) | inactive: 111% |
| Cc1cccc(NC(=O)Cn2cc(S(=O)(=O)N3CCCC3)c(S(=O)(=O)N3CCCC3)c2)c1C | inactive: 138% |
| Oc1cccc(C(O)CNc2c3c(nc4cc(-c5cccc(F)c5)nn24)CCC3)c1 (stereo not drawn) | inactive: 99% |
| CC12CCC(C/C1=N\OC(=O)O)C2(C)C (stereo not drawn) | inactive: 88% |
| CCN(CC)c1ccc(C(=O)NCc2nc3cccnc3n2Cc2ccc(C)cc2)cc1 | inactive: 100% |
| Cc1cccc(-c2nc3c4c(-c5ccccc5)c(-c5ccccc5)oc4ncn3n2)c1 | inactive: 135% |
| Cc1cc(C)n(C(=O)c2ccccc2C(=O)O)n1 | inactive: 107% |
| CCCCOc1ccc(C2=NC(c3cccs3)=Nc3ccc(OC)cc3N2)cc1 | inactive: 124% |
| COc1ccc(OC)c(CNC(=O)c2c(C)oc3ncn(CC(C)C)c(=O)c23)c1 | inactive: 71% |
| COc1cccc2sc(N(Cc3cccnc3)C(=O)c3ccco3)nc12 | inactive: 78% |
| Cc1nn(C)c(C)c1S(=O)(=O)N(CC(=O)NCCc1ccc(Cl)cc1)c1ccc(C(C)C)cc1 | inactive: 84% |
| Cc1cccc(NC(=O)c2cnc3sc(N4CCCC4)nn3c2=O)c1C | inactive: 102% |
| COc1ccc(NC(=O)c2c(NCc3cccc(F)c3)sc3c2CCC3)c(OC)c1 | inactive: 77% |
| CC1CC(C)CN(C(=O)Cn2cnc3c2c(=O)n(C)c(=O)n3C)C1 (stereo not drawn) | inactive: 114% |
| O=C(NCC(c1cccnc1)N1CCN(c2ccccc2F)CC1)c1ccc(F)cc1 (stereo not drawn) | inactive: 83% |

| Compound | survival |
| --- | --- |
| COc1ccc(C)cc1NC(=O)C(=O)NCCc1sc(-c2cccc(C)c2)nc1C | inactive: 71% |
| Cc1cc(C)cc(NC(=O)Cc2csc(COc3cccc(C)c3)n2)c1 | inactive: 91% |
| CCn1c(SCC(N)=O)nc2ccccc2c1=O | inactive: 96% |
| Cc1ccccc1C(=O)Nc1ccc(S(=O)(=O)N2CCC(c3nc4ccccc4s3)CC2)cc1 | inactive: 61% |
| O=C(O)CSc1nc2ccccc2c(=O)n1-c1ccccc1 | inactive: 109% |
| CCCNC(=O)C1CCC(Cn2c(=O)c3sccc3n(CC(=O)NCc3ccccc3)c2=O)CC1 (stereo not drawn) | inactive: 88% |
| CCOC(=O)c1ccc(NC(=O)CCCc2nc(-c3cc(OC)c(OC)c(OC)c3)no2)cc1 | inactive: 68% |
| O=C(NCc1ccccc1F)C1CCCN(C(=O)N2CCOc3ccccc32)C1 (stereo not drawn) | inactive: 85% |
| O=C(CN1C=NS(=O)(=O)c2ccccc21)Nc1ccccc1F | inactive: 73% |
| CCOc1ccc(S(=O)(=O)N(CC(=O)Nc2ccc(OC)cc2OC)c2ccccc2)cc1 | inactive: 140% |
| Cc1nn(CCCC(=O)NCc2ccccc2Br)c(=O)c2c1sc1ccccc12 | inactive: 85% |
| O=C(/C=C/N1CCOCC1)c1cc2ccccc2o1 | inactive: 117% |
| Cc1cccc2nc(Cn3c(=O)n(-c4ccc(Cl)cc4)c(=O)c4c5c(sc43)CCC5)cc(=O)n12 | inactive: 121% |
| CCOc1ccc(C(=O)Nc2cccc(C(=O)OCc3cc(=O)n4cc(C)sc4n3)c2)cc1 | inactive: 81% |
| COc1ccc(S(=O)(=O)N(CC(=O)N2CCc3ccccc3C2)c2ccc(C)cc2)cc1 | inactive: 66% |
| COc1ccc(OC)c(CNS(=O)(=O)c2ccc3c(c2)oc(=O)n3C)c1 | inactive: 83% |
| COc1ccc(N2C(=O)CS(=O)(=O)C23C(=O)N(Cc2ccccc2F)c2ccccc23)cc1Cl (stereo not drawn) | inactive: 83% |
| COc1ccc(Br)cc1CNC(=O)c1cc(=O)[nH]c2ccc(S(=O)(=O)N3CCCCC3C)cc12 (stereo not drawn) | inactive: 105% |
